Test results published in US20250122202A1, “EGFR INHIBITOR, PREPARATION METHOD THEREFOR AND USE THEREOF” (SHANDONG NEW TIME PHARMACEUTICAL CO., LTD., priority 2021, published 2025).
Like-named read-outs stand apart in the source and are kept apart here.

Assays:
[1] = system: KC-0122:BaF3 EGFR-L858R/T790M/C797S; assay: cells; conditions: KC-0122, 72 h
[2] = system: KC-0116:BaF3 EGFR-Del19/T790M/C797S; assay: cells; conditions: KC-0116, 72 h
[3] = read-out: cell proliferation inhibition IC50 (μM) KC-0122, 72 h, CCK-8
[4] = read-out: cell proliferation inhibition IC50 (μM) KC-0116, 72 h, CCK-8
[5] = read-out: cell proliferation inhibition IC50 (μM) KC-0116
[6] = read-out: cell proliferation inhibition IC50 (μM) KC-0122, 72 h, CCK-8, Table 5 numeric
[7] = read-out: cell proliferation inhibition IC50 (μM) KC-0116, 72 h, CCK-8, Table 5 numeric

Structure (SMILES)	IC50 [1, 3] [µM]	IC50 [2, 4] [µM]	IC50 ([1]; read-out: cell proliferation inhibition IC50 (μM) KC-0122) [µM]	IC50 [2, 5] [µM]	IC50 [1, 6] [µM]	IC50 [2, 7] [µM]
CN1CCN(c2ccc(Nc3nc(NCCN4CCCC4)c4c(C(=O)c5ccc(F)cc5)c[nH]c4n3)cc2)CC1 [Example 76]	0.1 to 1	0.1 to 1	–	–	–	–
CN1CCN(c2ccc(Nc3nc(N[C@H]4CC[C@@H](N)CC4)c4c(C(=O)c5ccc(F)cc5)c[nH]c4n3)cc2)CC1 [Example 86]	0.1 to 1	< 0.1	–	–	–	–
O=C(c1ccc(F)cc1)c1c[nH]c2nc(Nc3ccc(N4CCOCC4)cc3)nc(N[C@H]3CC[C@H](CO)CC3)c12 [Example 79]	< 0.1	< 0.1	–	–	–	–
CN1CCN(c2ccc(Nc3nc(N[C@H]4CC[C@@H](CO)CC4)c4c(C(=O)c5ccc(F)cc5)c[nH]c4n3)cc2F)CC1 [Example 103]	0.1 to 1	0.1 to 1	–	–	–	–
CN(C)CCOc1ccc(Nc2nc(N[C@H]3CC[C@@H](CO)CC3)c3c(C(=O)c4ccc(F)cc4)c[nH]c3n2)cc1 [Example 107]	0.1 to 1	0.1 to 1	–	–	–	–
O=C(c1ccccc1)c1c[nH]c2nc(Nc3ccc(N4CCOCC4)cc3)nc(N[C@H]3CC[C@H](CO)CC3)c12 [Example 98]	< 0.1	< 0.1	–	–	–	–
CN1CCN(c2ccc(Nc3nc(N[C@@H]4CC[C@@H](CO)OC4)c4c(C(=O)c5ccc(F)cc5)c[nH]c4n3)cc2)CC1 [Example 95]	0.1 to 1	0.1 to 1	–	–	–	–
CN1CCN(c2ccc(Nc3nc(N[C@@H]4C=C[C@H](CO)C4)c4c(C(=O)c5ccc(F)cc5)c[nH]c4n3)cc2)CC1 [Example 19]	0.1 to 1	0.1 to 1	–	–	–	–
CN1CCN(c2ccc(Nc3nc(NC4CCN(S(C)(=O)=O)CC4)c4c(C(=O)c5ccc(F)cc5)c[nH]c4n3)cc2)CC1 [Example 64]	< 0.1	< 0.1	–	–	–	–
CN1CCN(c2ccc(Nc3nc(NCCN4CCCCC4)c4c(C(=O)c5ccc(F)cc5)c[nH]c4n3)cc2)CC1 [Example 77]	0.1 to 1	0.1 to 1	–	–	–	–
CN1CCN(c2ccc(Nc3nc(N[C@H]4CC[C@H](O)CC4)c4c(C(=O)c5ccc(F)cc5)c[nH]c4n3)cc2)CC1 [Example 56]	< 0.1	< 0.1	–	–	–	–
CN1CCN(c2ccc(Nc3nc(N[C@H]4CC[C@H](CO)CC4)c4c(C(=O)c5ccc(F)cc5)c[nH]c4n3)cc2)CC1 [Example 42]	< 0.1	< 0.1	–	–	–	–
C=CC(=O)N1CC[C@@H](Nc2nc(Nc3cnn(C)c3)nc3[nH]cc(C(=O)c4ccc(F)cc4)c23)C1 [Example 109]	1 to 2	1 to 2	–	–	–	–
CN1CCN(c2ccc(Nc3nc(NC45CC6CC(CC(O)(C6)C4)C5)c4c(C(=O)c5ccc(F)cc5)c[nH]c4n3)cc2)CC1 [Example 70]	< 0.1	< 0.1	–	–	–	–
CN1CCN(c2ccc(Nc3nc(N[C@@H]4CCN(S(=O)(=O)C5CC5)C4)c4c(C(=O)c5ccc(F)cc5)c[nH]c4n3)cc2)CC1 [Example 22]	1 to 2	0.1 to 1	–	–	–	–
CN1CCN(c2ccc(Nc3nc(N[C@H]4CCN(C(=O)CC(C)(C)C)C4)c4c(C(=O)c5ccc(F)cc5)c[nH]c4n3)cc2)CC1 [Example 51]	0.1 to 1	0.1 to 1	–	–	–	–
CN1CCN(c2ccc(Nc3nc(NC4CCN(C(=O)CC(C)(C)C)CC4)c4c(C(=O)c5ccc(F)cc5)c[nH]c4n3)cc2)CC1 [Example 66]	0.1 to 1	0.1 to 1	–	–	–	–
CN1CCN(c2ccc(Nc3nc(N[C@@H]4CCCN(S(=O)(=O)C5CC5)C4)c4c(C(=O)c5ccc(F)cc5)c[nH]c4n3)cc2)CC1 [Example 3]	–	–	0.14	0.15	–	–
C=CC(=O)N1CC[C@@H](Nc2nc(Nc3ccc(N4CCN(C)CC4)cc3)nc3[nH]cc(C(=O)c4ccc(F)cc4)c23)C1 [Example 26]	–	–	–	–	0.68	0.17
CN1CCN(c2ccc(Nc3nc(NC4CCN(C(=O)C(C)(C)C)CC4)c4c(C(=O)c5ccc(F)cc5)c[nH]c4n3)cc2)CC1 [Example 65]	0.1 to 1	0.1 to 1	–	–	–	–
CN1CCN(c2ccc(Nc3nc(N[C@H]4CCCN(S(=O)(=O)C5CC5)C4)c4c(C(=O)c5ccc(F)cc5)c[nH]c4n3)cc2)CC1 [Example 21]	–	–	–	0.15	0.27	–
C=CC(=O)N1CCC[C@H](Nc2nc(Nc3ccc(N4CCN(C)CC4)cc3)nc3[nH]cc(C(=O)c4ccc(F)cc4)c23)C1 [Example 25]	0.1 to 1	0.1 to 1	–	–	–	–
CN1CCN(c2ccc(Nc3nc(N[C@H]4CCN(C(=O)c5ccc(F)cc5)C4)c4c(C(=O)c5ccc(F)cc5)c[nH]c4n3)cc2)CC1 [Example 52]	0.1 to 1	0.1 to 1	–	–	–	–
Cc1ccc(C(=O)c2c[nH]c3nc(Nc4ccc(N5CCOCC5)cc4)nc(N[C@H]4CC[C@H](CO)CC4)c23)cc1 [Example 97]	< 0.1	< 0.1	–	–	–	–
CN(C)CCNc1nc(Nc2ccc(N3CCN(C)CC3)cc2)nc2[nH]cc(C(=O)c3ccc(F)cc3)c12 [Example 13]	< 0.1	< 0.1	–	–	–	–

Structure (SMILES)	IC50 [1, 3] [µM]	IC50 [2, 4] [µM]	IC50 ([1]; read-out: cell proliferation inhibition IC50 (μM) KC-0122) [µM]	IC50 [2, 5] [µM]	IC50 [1, 6] [µM]	IC50 [2, 7] [µM]
CN1CCN(c2ccc(Nc3nc(N[C@@H](CO)C(C)(C)C)c4c(C(=O)c5ccc(F)cc5)c[nH]c4n3)cc2)CC1 [Example 8]	0.1 to 1	0.1 to 1	–	–	–	–
CN1CCN(c2ccc(Nc3nc(NC4CCOCC4)c4c(C(=O)c5ccc(F)cc5)c[nH]c4n3)cc2)CC1 [Example 40]	< 0.1	< 0.1	–	–	0.051	0.06
COc1cc(N2CCC(N3CCN(C)CC3)CC2)ccc1Nc1ncc(Cl)c(Nc2ccccc2P(C)(C)=O)n1 [Brigatinib, reference compound]	0.1 to 1	0.1 to 1	–	–	0.49	0.43
CN1CCN(c2ccc(Nc3nc(NC4CCCCC4O)c4c(C(=O)c5ccc(F)cc5)c[nH]c4n3)cc2)CC1 (centres unmarked) [Example 43]	0.1 to 1	0.1 to 1	–	–	–	–
CN1CCN(c2ccc(Nc3nc(N[C@H]4CCN(C(=O)C(C)(C)C)C4)c4c(C(=O)c5ccc(F)cc5)c[nH]c4n3)cc2)CC1 [Example 53]	0.1 to 1	0.1 to 1	–	–	–	–
C=CC(=O)N1CC[C@H](Nc2nc(Nc3ccc(N4CCN(C)CC4)cc3)nc3[nH]cc(C(=O)c4ccc(F)cc4F)c23)C1 [Example 44]	0.1 to 1	0.1 to 1	–	–	–	–
CN1CCN(c2ccc(Nc3nc(N[C@H]4CCN(S(=O)(=O)C5CC5)C4)c4c(C(=O)c5ccc(F)cc5F)c[nH]c4n3)cc2)CC1 [Example 48]	0.1 to 1	0.1 to 1	–	–	–	–
O=C(c1cc(F)cc(F)c1)c1c[nH]c2nc(Nc3ccc(N4CCOCC4)cc3)nc(N[C@H]3CC[C@H](CO)CC3)c12 [Example 101]	< 0.1	< 0.1	–	–	0.04	0.043
CN1CCN(c2ccc(Nc3nc(N[C@H]4CC[C@H](CO)CC4)c4c(C(=O)c5ccc(F)cc5)c[nH]c4n3)cc2F)CC1 [Example 78]	< 0.1	0.1 to 1	–	–	–	–
CN1CCN(c2ccc(Nc3nc(NC4COC4)c4c(C(=O)c5ccc(F)cc5)c[nH]c4n3)cc2)CC1 [Example 69]	0.1 to 1	0.1 to 1	–	–	–	–
CN1CCN(c2ccc(Nc3nc(NCC4CCOCC4)c4c(C(=O)c5ccc(F)cc5)c[nH]c4n3)cc2)CC1 [Example 59]	< 0.1	< 0.1	–	–	–	–
CN1CCN(c2ccc(Nc3nc(N[C@H]4CCN(S(=O)(=O)C5CC5)C4)c4c(C(=O)c5ccccc5F)c[nH]c4n3)cc2)CC1 [Example 45]	0.1 to 1	0.1 to 1	–	–	–	–
CN1CCC(n2cc(Nc3nc(N[C@H]4CC[C@@H](CO)CC4)c4c(C(=O)c5ccc(F)cc5)c[nH]c4n3)cn2)CC1 [Example 115]	0.1 to 1	0.1 to 1	–	–	–	–
C=CC(=O)N1CC[C@H](Nc2nc(Nc3ccc(N4CCN(C)CC4)cc3)nc3[nH]cc(C(=O)c4ccccc4F)c23)C1 [Example 46]	0.1 to 1	0.1 to 1	–	–	–	–
Cn1cc(Nc2nc(N[C@@H]3CCCN(S(=O)(=O)C4CC4)C3)c3c(C(=O)c4ccc(F)cc4)c[nH]c3n2)cn1 [Example 4]	–	–	–	–	0.45	0.31
CN1CCN(c2ccc(Nc3nc(N[C@H]4CCN(S(=O)(=O)C5CC5)C4)c4c(C(=O)c5ccc(F)cc5)c[nH]c4n3)cc2)CC1 [Example 23]	0.1 to 1	0.1 to 1	–	–	–	–
CN1CCN(c2ccc(Nc3nc(NC4(CO)CC4)c4c(C(=O)c5ccc(F)cc5)c[nH]c4n3)cc2)CC1 [Example 10]	0.1 to 1	0.1 to 1	–	–	–	–
C=CC(=O)Nc1cccc(Oc2nc(Nc3ccc(N4CCN(C)CC4)c(F)c3)nc3[nH]ccc23)c1 [Avitinib, reference compound]	1 to 2	0.1 to 1	–	–	1.5	0.97
CCN1CCN(c2ccc(Nc3nc(N[C@H]4CC[C@@H](CO)CC4)c4c(C(=O)c5ccc(F)cc5)c[nH]c4n3)cc2)CC1 [Example 104]	< 0.1	< 0.1	–	–	–	–
CCN(CC)CCNc1nc(Nc2ccc(N3CCN(C)CC3)cc2)nc2[nH]cc(C(=O)c3ccc(F)cc3)c12 [Example 12]	0.1 to 1	0.1 to 1	–	–	–	–
O=C(c1cccc(F)c1)c1c[nH]c2nc(Nc3ccc(N4CCOCC4)cc3)nc(N[C@H]3CC[C@H](CO)CC3)c12 [Example 92]	< 0.1	< 0.1	–	–	0.0063	0.0075
COc1cc(N2CCN(C)CC2)ccc1Nc1nc(N[C@H]2CC[C@@H](CO)CC2)c2c(C(=O)c3ccc(F)cc3)c[nH]c2n1 [Example 106]	< 0.1	0.1 to 1	–	–	–	–
CN1CCN(c2ccc(Nc3nc(NC45CC6CC(C4)C(O)C(C6)C5)c4c(C(=O)c5ccc(F)cc5)c[nH]c4n3)cc2)CC1 (centres unmarked) [Example 71]	0.1 to 1	< 0.1	–	–	–	–
COc1nn(C)cc1Nc1nc(N[C@H]2CC[C@@H](CO)CC2)c2c(C(=O)c3ccc(F)cc3)c[nH]c2n1 [Example 116]	0.1 to 1	0.1 to 1	–	–	–	–
C=CC(=O)N1CCC[C@@H](Nc2nc(Nc3ccc(N4CCN(C)CC4)cc3)nc3[nH]cc(C(=O)c4ccc(F)cc4)c23)C1 [Example 24]	0.1 to 1	0.1 to 1	–	–	–	–
